Measurements taken from article PMC12136788.
Some of the results follow.

T1: UNK ZnF1-3 (human, UniProt Q9C0B0 31-174)
T1 sequence: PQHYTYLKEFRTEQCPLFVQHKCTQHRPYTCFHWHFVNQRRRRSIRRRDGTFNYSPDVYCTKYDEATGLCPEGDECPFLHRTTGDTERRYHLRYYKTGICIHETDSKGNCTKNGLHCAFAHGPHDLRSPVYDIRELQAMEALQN

B1: 4099149_4099269_1105_3pUTR_ENSMUSG00000001467_ENSMUST00000001507|mouse|control|control (ssRNA)
RNA: GGGAGUUCUACAGUCCGACGAUCUGGCAAUAGCCAGGCAGCGUGGGUAAAACCUCCAUCCAGGUCUGCGUACAGCUGAGCCACCUUCUCGUUGAGUUGACUUCUAAUUUCCUUUCCAUGUAAACAAUGGCUAGCUGUCAAAAUCAACAGAGGAUUGAGCAUCA
B2: chr3:148802587:148802588:-_ENSG00000071794_ENST00000310053|hu_mus|hu_hu_hu_mus_False|48_58 (ssRNA)
RNA: GGGAGUUCUACAGUCCGACGAUCUCCAACAACUUGUCCUCUCAUAGUUCCAAAUAAAACCAAAUCUUGCUCUUCAUCACUAGUUAGAAAGUCAUCUGGAGGAAUAAUGUCUUGGAAUUCAAAAUGUGGCAAGAAAGUUGAGUACAACAGAGGAUUGAGCAUCA
B3: chr5:31825596:31825597:-_ENSMUSG00000053134_ENSMUST00000065388|mus_mus|motif|central (ssRNA)
RNA: GGGAGUUCUACAGUCCGACGAUCUAGGAAGUCUAGGCAGUUCCCACAUAAGAAGCAAGCUAAGAUCACUUUAAAAAGGUGCGGGCAAAACUCUAGGACAGACAAUACUCUCCCGCCCUGCCCCAGGAGUGGUAUACGCGGCUGCAACAGAGGAUUGAGCAUCA
B4: chr20:7962013:7962014:-_ENSG00000125827_ENST00000246024|hu_mus|FALSE|FALSE (ssRNA)
RNA: GGGAGUUCUACAGUCCGACGAUCGGGUUCAGAAAAACAAAGGAUGUGGCUGGAGAAACUCUUGAAGAAGUUAUCCUGUAACUAUAGGACCCAAAAAAGAUGUUGCUUGUACCUGUCCUAUGAAACUGCCACUGCCUUUUGAAUCAACAGAGGAUUGAGCAUCA
B5: 45008640_45009124_3592_CDS_ENSMUSG00000038518_ENSMUST00000173246|mouse|control|control (ssRNA)
RNA: GGGAGUUCUACAGUCCGACGAUCUACUUUGGACACAAAGGAUCCCGGGAAGCAGACGACAAACUGCCCACUCUGCUGUACAGUCCUGUGGACCUUGAUCCCCUUCUUGCACAGCACCUCUGGGGAGAUCAUUACAUUGCUCUCCAACAGAGGAUUGAGCAUCA
B6: chr17:32333828:32333829:-_ENSMUSG00000024002_ENSMUST00000121285|mus_hu|FALSE|FALSE (ssRNA)
RNA: GGGAGUUCUACAGUCCGACGAUCUACAGUACAGCCACGGUCACACACUACCCACAGCGCGGUGGCAGCCGCUGCUCAAUGAGGAGACGAUCACACCAUUUCGGAGAUAAGCAGUGCCAUUGUGUCUGGAGGAGAAGAGAGAAUCAACAGAGGAUUGAGCAUCA
B7: 25201842_25208054_780_CDS_ENSMUSG00000059669_ENSMUST00000075954|mouse|control|control (ssRNA)
RNA: GGGAGUUCUACAGUCCGACGAUCGAUGCCUUUGUCACGACCAUACACUUUCAUCUCUUCUGGAAAAAGCUUAAAAGCAUUUAUGUACGGAAUAUGAUCCUCUUCAACAAACCUCAAAAGGUCUGAAACUGUAAUUGUUUCCCUCAACAGAGGAUUGAGCAUCA
B8: chr11:4127340:4127341:+_ENSG00000167325_ENST00000300738|hu_hu|FALSE|FALSE (ssRNA)
RNA: GGGAGUUCUACAGUCCGACGAUCAGCAUAGUCAGGGUGCUUAGUAGUCAAGGUUGCAGCUGUUUCAGCAGCCAAAGUAUCUAGUUCCACUGUGGUGACCCCACUGUACAAGCCUUGGAUUACUUUCAUGGUGAUCUGAGCAGGCAACAGAGGAUUGAGCAUCA
B9: chr10:82349929:82349930:+_ENSMUSG00000020250_ENSMUST00000020484|mus_hu|motif|central (ssRNA)
RNA: GGGAGUUCUACAGUCCGACGAUCAUAACAUUUGUUGUUAUCUCUUGACGGAAUCGUCCAUUCCAAUGGCCAAAAGUAACGGUGGUAAACCUCAAUAUUUUCUUCCCCAAACUUCUCCACAGCUUUCUCCUCAGAAAGGCCACACAACAGAGGAUUGAGCAUCA
B10: chr6:160200208:160200209:-_ENSG00000120438_ENST00000420894|hu_mus|FALSE|FALSE (ssRNA)
RNA: GGGAGUUCUACAGUCCGACGAUCAAUCCGAAGGAUGGUGAUUGCAGCCUCUGUUGCGAACUUCAGGCUCUUCACUUUAACUAUGGUUGGUUCAAACACCCCUGCUUGCUUGUUGUCUCGUGGUUUCCCAUGGACCAAAUCAAGCAACAGAGGAUUGAGCAUCA
B11: chr5:132216804:132216805:-_ENSG00000072364_ENST00000265343|hu_mus|FALSE|FALSE (ssRNA)
RNA: GGGAGUUCUACAGUCCGACGAUCAGAUAUCAGCUUGGCAUCCUGCCGAAGCCAAUGCAGUCCCUGCCGGGUGUAACGAGCCAGAUCUGUCAUGAUGCUUGCAUUAAAGAUGAGAGGGCCCAUCACUUUGUCCAGUUCAGCAAACAACAGAGGAUUGAGCAUCA
B12: chr12:105536279:105536280:+_ENSG00000136051_ENST00000332180|hu_mus|hu_hu_hu_mus_True|18_18 (ssRNA)
RNA: GGGAGUUCUACAGUCCGACGAUCAGCACUGAACAUGUAAUGUAAUCUGGCUGCAUCGACAGCAUUUUCAUAUACAUCAUCUAAAUAAAUCGGGAAGACAGCGCGAUGCCAGUAUAAAAAACAACAGUCACACUGUGCUUGGACCAACAGAGGAUUGAGCAUCA
B13: chr5:144087797:144087798:-_ENSMUSG00000001844_ENSMUST00000161915|mus_mus|FALSE|FALSE (ssRNA)
RNA: GGGAGUUCUACAGUCCGACGAUCCCUCUGGAGGCACUGCGGGAUUACCCUGGAGCACACCUGUGCUCCUCCAAGGACCACGGCCUUCAAACGCUGGCUUUUUGUGAAGAUGCAGAUCAGGACAACACAAAUCAAUAAGAAGGCCAACAGAGGAUUGAGCAUCA
B14: chr7:89982137:89982138:+_ENSG00000105793_ENST00000417207|hu_hu|FALSE|FALSE (ssRNA)
RNA: GGGAGUUCUACAGUCCGACGAUCGGAUAACCCAUUCCACCGGAUCCUCCCCUGGUGAAGAGUCUUAGCUUAUCGAUGAAAUUUCCAUACUUUCUGAACAACACGCAACUGCAAUGCACCAUGGCUGCAACAGGCCAGGAAACCCAACAGAGGAUUGAGCAUCA
B15: chr6:40197388:40197389:+_ENSMUSG00000057716_ENSMUST00000061740|mus_mus|mus_mus_mus_hu_False|58_58 (ssRNA)
RNA: GGGAGUUCUACAGUCCGACGAUCGAGACACUGGGGUGGAUUUAUUCCACCUCUGUUUGGGUGCUAGCCACUAAGACAGCUAUUUUGGGAUUCAUGGCCUUGAAUAUCAAGAGGGAAAGGAAGAGGAUGGAAAGAGUCAAGAGUCAACAGAGGAUUGAGCAUCA
B16: chrX:160355682:160355683:+_ENSMUSG00000031367_ENSMUST00000069041|mus_hu|FALSE|FALSE (ssRNA)
RNA: GGGAGUUCUACAGUCCGACGAUCGACAUUUUUCUUGGAUGUUUCCUGAACUUCCCCUCCCAAAAGAAACUCAUCCAAAAUAAAAUAAGCCUUCUCAAAAUUAAAGAUGAUAUCUAGUUCACAGACACUGCCGAAAUACUUGUCCAACAGAGGAUUGAGCAUCA
B17: chr2:158593201:158593202:-_ENSG00000115170_ENST00000434821|hu_hu|FALSE|FALSE (ssRNA)
RNA: GGGAGUUCUACAGUCCGACGAUCUGAAAUCUUUGCUUCUAAAUCAGUAAUAUAUUCGGUGGUGUCACGUGGGUAAUGGCUAAAUACGUUCUGCAUAUGAACUGAAAAAAAGUUACAGUCUACACACAUACAAAUGUGAAGCACCAACAGAGGAUUGAGCAUCA
B18: chr1:154246031:154246032:+_ENSG00000143575_ENST00000328703|hu_hu|FALSE|FALSE (ssRNA)
RNA: GGGAGUUCUACAGUCCGACGAUCACCUGGAAGUUCAGGAGGAUGGGAAGGCAAGGUCCAGGCCCCCAUAUCGCUGAAGAUGCUAUUGAAAUCUCGUACUAGGUCAUCAAAGCCGAAGUUAUCGUGGAAACGUAUCCCUCCUCCCAACAGAGGAUUGAGCAUCA
B19: chr5:128440902:128440903:+_ENSG00000066583_ENST00000173527|hu_mus|hu_hu_hu_mus_True|58_78 (ssRNA)
RNA: GGGAGUUCUACAGUCCGACGAUCUUGAACGGUGCUGCCAAGUCCUUUGGGGUAUUGUUCUGUUACAAUAACUGGAAUUCCUAAAAUCCGAGCUCCUUGCAACAGUCUCUGUCCCACACUAAUGAUGUCCCCAAAGUAUUUGAUCAACAGAGGAUUGAGCAUCA
B20: 54241237_54241357_4600_CDS_ENSMUSG00000061603_ENSMUST00000095737|mouse|control|control (ssRNA)
RNA: GGGAGUUCUACAGUCCGACGAUCUUCAUGGAGGGGCGCGUCUGGUUGUGACUCAGAAGUCUGAUGUUUAGGUUUGCAGGACUUUUUAUCAAAAUAGAAACCACGAAGAAGGGGAUCCUCCAAAUGUGCCUUCUCACUCUGCGGCAACAGAGGAUUGAGCAUCA
B21: chr3:10015032:10015033:+_ENSMUSG00000027533_ENSMUST00000029046|mus_mus|mus_mus_mus_hu_True|88_88 (ssRNA)
RNA: GGGAGUUCUACAGUCCGACGAUCGUUUUUACCAUCACAAGUGAUGAUACAGUCUGGCUUGGCCAUUGCGCCCAUUUUUCGCAAAGCUAUUCCCACUCCUAGCUCCUUCAUGUAUUCAUCAAAGCCUUUGCUGUCCACCAGGCGCAACAGAGGAUUGAGCAUCA
B22: 65867278_65867398_8407_3pUTR_ENSMUSG00000044647_ENSMUST00000122912|mouse|control|control (ssRNA)
RNA: GGGAGUUCUACAGUCCGACGAUCCACUCCCCUAACAUGACAGUAAUCUUAAAAAGAUAAAUAUAGAUGAAUAAAAACUGCCUAGUGCCUUUAUUUUCCCAAAGCAGGUUACAUUACAAAGUAUCCGAGUACCUACAUUCUCCUCAACAGAGGAUUGAGCAUCA

Each binder was assayed against T1, UNK ZnF1-3 (assay: nsRBNS (natural sequence RNA bind-n-seq); RBNS binding buffer (assumed for nsRBNS): 25 mM Tris pH 7.5, 150 mM KCl, 3 mM MgCl2, 0.01% Triton X-100, 500 ug/ml BSA, 20 U/ml SUPERase-In, 4 C; UNK is unkempt and MSI1 is Musashi-1; names of the RNAs are library labels; protein concentration not given here; high values mean tight binding).

| Binder | binding signal |
| --- | --- |
| B1 | 0.668 enrichment R |
| B2 | 1.31 enrichment R |
| B3 | 1.17 enrichment R |
| B4 | 1.86 enrichment R |
| B5 | 0.963 enrichment R |
| B6 | 1.37 enrichment R |
| B7 | 1.04 enrichment R |
| B8 | 0.979 enrichment R |
| B9 | 0.85 enrichment R |
| B10 | 0.501 enrichment R |
| B11 | 0.924 enrichment R |
| B12 | 2.33 enrichment R |
| B13 | 1.27 enrichment R |
| B14 | 1.05 enrichment R |
| B15 | 1.53 enrichment R |
| B16 | 1.61 enrichment R |
| B17 | 1.15 enrichment R |
| B18 | 1.33 enrichment R |
| B19 | 0.759 enrichment R |
| B20 | 0.947 enrichment R |
| B21 | 0.638 enrichment R |
| B22 | 2.74 enrichment R |
